In all, about 270,000 compounds went through this assay and about 5,800 (2.1%) were called active. The inconclusive results got no clear call from the source; some entries with a clear call stand among them for comparison. Calls follow the shape of the dose curve; as a rule, active = well fitted inhibition curve with a large enough effect; inconclusive = small, poorly fitted or top-dose-only effect; inactive = flat fitted curve, though single readings scatter. Potencies beside an inconclusive call are fits to weak or partial responses and may not hold up.
Target: Microtubule-associated protein tau (Homo sapiens) (UniProt P10636)
Chain of UniProt P10636 (P10636 whole entry, looked up): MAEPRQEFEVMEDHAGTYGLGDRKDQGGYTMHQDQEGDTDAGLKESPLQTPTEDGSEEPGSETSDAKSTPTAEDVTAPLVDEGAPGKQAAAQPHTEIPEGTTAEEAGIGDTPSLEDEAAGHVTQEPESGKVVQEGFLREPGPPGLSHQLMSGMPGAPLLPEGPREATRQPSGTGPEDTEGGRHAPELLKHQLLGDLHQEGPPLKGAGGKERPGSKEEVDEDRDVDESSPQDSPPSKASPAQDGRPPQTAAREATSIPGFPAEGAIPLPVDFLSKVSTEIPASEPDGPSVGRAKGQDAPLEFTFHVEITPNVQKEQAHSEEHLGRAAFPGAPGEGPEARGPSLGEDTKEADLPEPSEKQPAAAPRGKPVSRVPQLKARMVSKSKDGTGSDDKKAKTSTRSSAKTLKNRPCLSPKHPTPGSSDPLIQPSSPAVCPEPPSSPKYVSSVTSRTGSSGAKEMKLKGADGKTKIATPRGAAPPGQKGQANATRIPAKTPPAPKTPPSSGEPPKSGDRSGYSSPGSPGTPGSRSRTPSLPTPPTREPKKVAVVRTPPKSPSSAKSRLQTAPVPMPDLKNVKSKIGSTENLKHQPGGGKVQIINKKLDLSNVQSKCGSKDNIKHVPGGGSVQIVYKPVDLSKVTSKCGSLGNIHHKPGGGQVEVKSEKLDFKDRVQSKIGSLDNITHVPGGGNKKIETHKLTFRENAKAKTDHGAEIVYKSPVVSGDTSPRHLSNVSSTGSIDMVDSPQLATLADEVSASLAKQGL
Assay: qHTS for Inhibitors of Tau Fibril Formation, Thioflavin T Binding; also: nearly all actives have a fitted effect of over 55% in size
Conditions: recombinant tau K18 P301L (four-repeat tau fragment), heparin-induced fibrillization, ThT fluorescence; series mostly up to 57.4 µM; activity, negative = inhibition: at the top concentration
How it was run: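 Tau K18 P301L fragment (15 uM unlabeled plus 0.24 uM Alexa 594-labeled) in 100 mM sodium acetate pH 7 with compound, fibrillization induced by 20 uM heparin for 6 hr at 37 C. Thioflavin T (30 uM) added, fluorescence read after 1 hr (ex 450, em 510 nm).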
% is scaled to controls: 0 for no effect and ±100 for the full control effect; potency is read from the fitted curve at half-maximal effect; tags tell the direction and shape of the fitted curve.

Row | SMILES | Potency | activity, negative = inhibition
1 | NS(=O)(=O)c1ccc(NC(=O)CSC2=NC(=O)C(c3ccccc3)C(=O)N2)cc1 (stereo not drawn) | inconclusive: 22.4 µM [inhibitor, single point] | –
2 | Cc1cc(/C=C2/NC(=O)N(c3ccccc3)C2=O)c(C)n1C(C)C | inconclusive: 20 µM [inhibitor, single point] | –
3 | CC1(C)CC(=O)C2=C(C1)Nc1cc3c(cc1C2c1ccc2c(c1)OCO2)OCO3 (stereo not drawn) | inconclusive: 28.2 µM [inhibitor, partial curve] | –
4 | O=C(N/N=C/c1ccc(N2CCOCC2)o1)c1cccc(F)c1 | inconclusive: 22.4 µM [inhibitor, partial curve] | –
5 | CCn1c(C)nc2cc(C(=O)NNC(=S)Nc3ccc(F)cc3)ccc21 | inconclusive: 44.7 µM [inhibitor, single point] | –
6 | CCCCCCCC#Cc1ccccc1/C=N/S(=O)c1ccc(C)cc1 (stereo not drawn) | inconclusive: 35.5 µM [inhibitor, single point] | –
7 | Cc1ccccc1NC1=C(C(=O)c2ccccc2)N(C)S(=O)(=O)c2ccccc21 | inconclusive: 17.8 µM [inhibitor, partial curve] | –
8 | O=C(/C=C/c1ccc2c(c1)OCO2)c1ccco1 | inconclusive: 10 µM [inhibitor, partial curve] | –
9 | COc1ccc(CCn2c(C)cc(C(=O)CSc3nnc(N)s3)c2C)cc1 | inconclusive: 28.2 µM [inhibitor, partial curve, poor fit] | –
10 | CC1(Cn2ccnn2)[C@H](C(=O)O)N2C(=O)C[C@H]2S1(=O)=O (stereo partly drawn) | – | inactive: -0.934%
11 | Cc1ccc2c(c1)C(O)(c1c(C)[nH]c3ccccc13)C(=O)N2 (stereo not drawn) | inconclusive: 12.6 µM [inhibitor, partial curve] | –
12 | O=C1C2=CC[C@H]3C(=O)N(C4CCCCC4)C(=O)[C@@H]3[C@@H]2[C@H](O)[C@@H]2O[C@H]12 | inconclusive: 3.16 µM [inhibitor, partial curve] | –
13 | O=C(NCCN=C1NS(=O)(=O)c2ccccc21)c1ccc2nccnc2c1 | inconclusive: 14.1 µM [inhibitor, single point] | –
14 | CCCOc1cccc(-c2nn(-c3ccccc3)cc2/C=C(\C#N)C(=O)NCCCn2ccnc2)c1 | inconclusive: 17.8 µM [inhibitor, partial curve] | –
15 | Oc1ccc2ccccc2c1C=NC12CN3CCN(CN(C3)C1)C2 | active: 20 µM | –
16 | CN(CCc1ccccn1)C(=O)CC1C(=O)NCCN1Cc1ccc(-c2ccccc2)cc1 (stereo not drawn) | inconclusive: 44.7 µM [inhibitor, single point] | –
17 | Cc1ccc(C)c(Cn2nnc3c(=O)[nH]c(C(=O)NCc4ccco4)nc32)c1 | – | inactive: -3.03%
18 | O=c1cc(-c2ccccc2)[nH]c2[nH]n(-c3ccccc3)c(=O)c12 | active: 20 µM | –
19 | Cc1sc(-n2c(C)cc(/C=C3\SC(=S)NC3=O)c2C)c(C#N)c1C | inconclusive: 5.01 µM [inhibitor, partial curve] | –
20 | CC1CCN(S(=O)(=O)c2nnc(NC(=O)c3cccc(Br)c3)s2)CC1 | inconclusive: 8.91 µM [inhibitor, partial curve] | –
21 | CCCC1=NN2C(=N)/C(=C\c3cc(C)n(-c4cc(C)cc(C)c4)c3C)C(=O)N=C2S1 | inconclusive: 20 µM [inhibitor, single point] | –
22 | O=C(NCCc1ccccc1)C(=O)NCC(c1ccc2c(c1)OCO2)N1CCOCC1 (stereo not drawn) | – | inactive: 7.81%

Row | SMILES | Potency | activity, negative = inhibition
23 | O=C(O)c1cccc(N/N=C/c2cccnc2)c1 | inconclusive: 0.562 µM [inhibitor, single point] | –
24 | CCCCn1nnc(NC(=O)c2sc3cc(Cl)ccc3c2Cl)n1 | inconclusive: 20 µM [inhibitor, partial curve] | –
25 | COC1=C(Nc2ccc(O)cc2)C(=O)c2ccccc2C1=O | active: 12.6 µM | –
26 | Cc1cccc2nc(-c3cccnc3)c(NCCC(C)C)n12 | inconclusive: 31.6 µM [inhibitor, single point] | –
27 | CCCCC#Cc1nc(N)c2ncn([C@@H]3O[C@H](C(=O)NCC)[C@@H](O)[C@H]3O)c2n1 | – | inactive: 1.53%
28 | COC1=C/C(=C/c2c(O)c(C#N)c3ccccn23)C=CC1=O | active: 14.1 µM | –
29 | CCCCCCOC(=O)Sc1nc2ccccc2o1 | inconclusive: 44.7 µM [inhibitor, single point] | –
30 | CC(=O)N(/N=C/c1cccc(C)c1)c1nc(-c2ccc(Br)cc2)cs1 | inconclusive: 4.47 µM [inhibitor, partial curve] | –
31 | COc1cc(/C=N/NC(=O)CCOc2ccccc2C)cc(Br)c1O | inconclusive: 15.8 µM [inhibitor, partial curve] | –
32 | Cc1nc(NC(=O)c2ccccc2)sc1-c1csc(NCc2ccccc2)n1 | inconclusive: 6.31 µM [inhibitor, partial curve] | –
33 | CCC(C)NCCOCCOc1ccc(Br)cc1 (stereo not drawn) | – | inactive: -3.42%
34 | CC(C)(C)c1ccc(C(=O)N2CCC(c3nc4ccccc4o3)CC2)cc1 | – | inactive: -15.4%
35 | CCOC(=O)c1ccc(-n2[nH]c(-c3ccccc3)cc2=O)cc1 | inconclusive: 14.1 µM [inhibitor, partial curve] | –
36 | O=C(CCC1N=C2c3ccccc3N=C(SCc3ccccc3F)N2C1=O)NCc1ccc(F)cc1 (stereo not drawn) | – | inactive: 8.14%
37 | Cc1cn([C@H]2C[C@H](O)[C@@H](CO)O2)c(=O)[nH]c1=O | inactive | –
38 | Clc1cccc(CSc2ccc(-c3ccco3)nn2)c1 | inconclusive: 28.2 µM [inhibitor, partial curve] | –
39 | COc1cccc(/C=N/Nc2nc3ccccc3[nH]2)c1OC | inconclusive: 8.91 µM [inhibitor, partial curve] | –
40 | COc1cc(/C=N/Nc2ccc(C(F)(F)F)cn2)ccc1O | inconclusive: 7.08 µM [inhibitor, partial curve] | –
41 | COc1ccc(NC(=O)c2c(NCc3cccc(OC)c3)sc3c2CCCC3)cc1 | inconclusive: 15.8 µM [inhibitor, partial curve] | –
42 | COc1ccccc1NC(=O)CSc1nc(-c2ccccc2F)nc2cc(=O)[nH]n12 | – | inactive: -14.8%
43 | CCN1CCc2nc3sc(C(=O)c4ccc(F)cc4)c(N)c3cc2C1 | inconclusive: 11.2 µM [inhibitor, partial curve] | –

Reference: PubChem BioAssay AID1460 (National Center for Advancing Translational Sciences (NCATS), 2008)
